Test results from patent US12662541B2, “Antibody-drug conjugates against the receptor tyrosine kinase EphA5” (Rutgers, The State University of New Jersey, priority 2021, dated 2026).

Biological target: T1, rhEphA5 antigen (Homo sapiens, UniProt P54756)
T1 construct: purchased R and D systems 3036-A5
Assay: kd (1/s)
Description: Table printed on a drawing sheet, FIG. 13
Head of the field: kd (1/s)
The patent's description of the figure: FIG. 13 is a table illustrating the single cycle kinetic parameters of chimeric (VH0/VK0) and humanized 11C12 variants (tested as cell culture supernatants) binding to rhEphA5 antigen as determined using the Biacore T200. The relative KD was calculated by dividing the KD of the humanized variant by that of the VH0/VK0 (top row) assayed in the same experiment. The variants marked with ‘*’ have KD values that are within two-fold of, or are better than, the chimeric antibody. The chimeric and selected variants marked in ‘#’ were identified as the main leads for purification. […]
Where the first naming reader finds the target: description_of_the_figure: humanized 11C12 variants (tested as cell culture supernatants) binding to rhEphA5 antigen as determined using the Biacore T200

T1 sequence (P54756 25-1037 limits assumed): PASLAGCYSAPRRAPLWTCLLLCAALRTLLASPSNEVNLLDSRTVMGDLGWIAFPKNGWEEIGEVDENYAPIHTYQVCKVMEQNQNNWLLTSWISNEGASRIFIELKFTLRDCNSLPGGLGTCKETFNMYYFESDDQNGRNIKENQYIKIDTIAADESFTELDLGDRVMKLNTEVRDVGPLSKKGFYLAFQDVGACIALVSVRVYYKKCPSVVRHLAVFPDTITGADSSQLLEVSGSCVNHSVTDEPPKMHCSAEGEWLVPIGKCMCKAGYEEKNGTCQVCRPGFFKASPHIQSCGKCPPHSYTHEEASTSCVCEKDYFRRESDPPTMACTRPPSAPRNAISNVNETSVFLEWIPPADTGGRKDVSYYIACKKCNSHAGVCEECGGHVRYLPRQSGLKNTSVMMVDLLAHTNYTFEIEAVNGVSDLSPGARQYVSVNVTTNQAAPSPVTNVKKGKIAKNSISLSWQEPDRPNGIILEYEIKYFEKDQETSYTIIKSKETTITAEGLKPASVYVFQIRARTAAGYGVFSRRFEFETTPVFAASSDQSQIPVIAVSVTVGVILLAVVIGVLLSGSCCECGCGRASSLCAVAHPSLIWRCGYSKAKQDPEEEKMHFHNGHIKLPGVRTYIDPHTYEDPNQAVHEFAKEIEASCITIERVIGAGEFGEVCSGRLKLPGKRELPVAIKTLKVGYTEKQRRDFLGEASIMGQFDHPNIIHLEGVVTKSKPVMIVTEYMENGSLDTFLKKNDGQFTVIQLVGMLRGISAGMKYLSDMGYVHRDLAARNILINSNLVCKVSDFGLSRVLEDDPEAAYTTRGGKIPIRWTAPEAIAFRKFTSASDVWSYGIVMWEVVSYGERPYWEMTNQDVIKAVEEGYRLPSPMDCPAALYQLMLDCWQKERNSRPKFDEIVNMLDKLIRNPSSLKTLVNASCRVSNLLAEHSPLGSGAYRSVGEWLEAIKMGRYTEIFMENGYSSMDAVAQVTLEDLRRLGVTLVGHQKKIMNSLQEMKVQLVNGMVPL

B1: VH1/VK0: control antibody produced by transient transfection, humanized VH1 with chimeric VK0 (protein)
heavy chain: EVTLVESGGGLVQPGGSRKLSCAASGFTFSTFGIHWVRQAPGKGLEWVAYISGASTTIYYADTVKGRFTISRDNSKNTLYLQMNSLRSEDTAMYYCARYGTSFPYGLDYWGQGTSVTVSSASTKGPSVFPLAPSSKSTSGGTAALGCLVKDYFPEPVTVSWNSGALTSGVHTFPAVLQSSGLYSLSSVVTVPSSSLGTQTYICNVNHKPSNTKVDKRV[letters of human IgG1 Fc left out]
light chain: DIVMTQSPGSLAVSLGQRATISCKASQSVDYDGDSYMNWYQQKPGQPPKLLIYGASNLESGIPARFSGSGSGTDFTLNIHPVEEEDAASYYCQQSNEDPFTFGSGTKLEIKRTVAAPSVFIFPPSDEQLKSGTASVVCLLNNFYPREAKVQWKVDNALQSGNSQESVTEQDSKDSTYSLSSTLTLSKADYEKHKVYACEVTHQGLSSPVTKSFNRGEC
  kd: 0.00127 s⁻¹
